Consider 34 variants from the RNAGym collection of RNA variant scans (doi:10.1093/nar/gkz1192).

Read counts are not given, so values of variants with three or more changes are uncertain.

The chains are these.
B1: CPEB3 Ribozyme (parent)
chain: UAACAGGGGGCCACAGCAGAAGCGUUCACGUCGCAGCCCCUGUCAGAUUCUGGUGAAUCUGCGAAUUCUGCUGUAUAUCUC

In the series the parent is B1. Nature of the series: self-cleavage, relative activity (ratio to wild type); higher = more cleavage; in vitro, sequencing. A digest of the protocol: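 CPEB3 self-cleaving ribozyme mutant libraries were made by rounds of error-prone PCR, barcoded, and transcribed in vitro with T7 RNA polymerase for 5 hours at 37°C. Cleavage occurred during transcription and a 15 min DNase I step before EDTA stop. RNAs were reverse transcribed with template switching and Illumina-sequenced, with DNA sequencing mapping barcodes to variants. Relative activity is the variant's cleaved/total read fraction divided by wild type's (minimum 5 reads), averaged across three batches.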
Consider UAACAGGGGGCCACGGCGGAAGCGUUCACGCCGCAGCCCCAGUCAGAUCCUGGUGAAUCUGCGAAUUCUGCUGUAUAUCUC, for which the self-cleavage was 0.15.
The same measure for UAACAGGGGGCCACGGCGGAAGCGUUCACGUCGCGGCCCCAGUCAGAUUCUGGAGAAUCCGCGAAUUCCGCUGUAUAUCUC: 0.47.
Consider UAACAGGGGGCCACCGCAGAAGCGUUCACGUCGCAGCCCCUGUCAGAUUCAGCUGAAUCUGCGAAUUCUGCUGUAUAUCUC, for which the self-cleavage came out at 0.8.
On to UAACAGGGGGCCACGGCGGAAGCGUUCACGUCGCAGCCCCUGCCAGAUUCUGGUGUAUCUGCGAAUUCCGCUGUAUAUCUC, for which the self-cleavage was 0.09.
As for UAACAGGGGGCCACGGCGGAUGUGUACACGUCGCUGCCCCUGUCAGAUUCUGGUGAAUCUGCGAAUUCUGCUGUAUAUCUC, the figure is 0.04; as for UAACAGGGGGCCACGGCGGAAGCGUUCGCGACGCAGCCCCUGUCAGAUUCUGGCGAAUCUGCGAAUUCUGCUGUAUAUCUC, 0; as for UAACAGGGGGCCACCGCAGAAGCGUUCACGUCGCAGCCCCCGUUAGAUUCUGGUGAAUCUGAGAAUUCUGCUGUAUAUCAC, 0.31.
The same measure for UAACAGGGGGCCACCGCAGAAGCGUUCACGUCGCAGCCCCUGUCAGAUCCUGGUGGAUCUGCGAAUUCUGCUGUAUAUCCC: 1.16.
In the case of UAACAGGGGGCCACGGCCGAAGCGUUCACGUCGCAGCCCCUGCCAAACUCUGGUGAAUCCGCGAAUUCUGCUGUAUAUCUC, the self-cleavage is 0.23.
Consider UAACAGGGGGCCACGGCGGAAGCGUUCACGUCGCAGCCCUUGUCAGAUUCUGGUGAAUCUGCGAAUUCUGCCGUAUAUCUC, for which the self-cleavage was 0.64.
Regarding UAACAGGGGGCCACCGCAGAAGCGAUCACGUCGCAGCCCCUGUCAGAUUCUGGUGAAUCGGCGAAUUCUGCUGUAUAUCUC, the self-cleavage was 0.31.
As for UAACAGGGGGCCACCGCAGAAGCGCUCACGUCGCAGCCCCUGUCAGAUUCUGGUGAAUCUGCGAACUCUGCUGUAUAUCUC, the figure is 0.08.
As to UAACAGGGGGCCACCGCAGAAGCGUUCACGUCGCAGCCCCUGACAGAUUCUGGUGAAUCUGCGAAUUCCGCUGUAUACCUC, the self-cleavage stood at 0.28.
As to UAACAGGGGGCCACCGCAGAAGCGUCCACGUCGCAGCGCCGGUCAGAUCCUGGUGAAUCUGGGAAUUCUGCUGUAUAUCUC, the self-cleavage was 0.35.
As for UAACAGGGGGCCACCGCAGAAGCGCUCUCGUCGCAGCCCCUGACAGAUUCUGGUGAAUCUGCGAAUUCUGCUGUAUAUCUC, the figure is 0.08; as for UAACAGGGGGCCACCGCAGAAGCGUCCACGUCGCAGCCCCUGCCGGAUUCUGGUGAAUCUGUGAACCCUGCUGUAUAUCUC, 0.09; as for UAACAGGGGGCCACGGCCGAAGCGUUCACGUCGCAGCCCCUGUCAGAUUCUGGUGAGUCUGCGAAUUCUGCUGUAUAUCUC, 0.08.
In the case of UAACAGGGGGCCACCGCAGAAGCGAUCACGUCGCAGCCCCUGUCAGAUUCCGGUGGAUCUGCGAAUUCUGCUGUAUAUCUC, the self-cleavage came out at 0.1.
Regarding UAACAGGGGGCCACCACAGAAGCGUCCACGUCGCAGCCCCUGUCAGUUUCAGGUGAAUCUGCGAAUUCUGCUGUAUAUCUC, the self-cleavage worked out at 0.12.
As for UAACAGGGGGCCACCGCAGAAGCGUUCACGAUGCAGCCCCUGUCAGAUUCUGGUGAAUCUGCGAAUUCUGCUGUAUAUCUC, the figure is 0.12.
The same measure for UAACAGGGGGCCACCGCAGAAGCGUUCACGUCGCAGCCCCUGUCAGACUCUGGUGAAUCCGCGAAUUCUGCUGUAUAUCUC: 0.04; for UAACAGGGGGCCACGGCGGAAGCGUUCGCGUCGCAGCCCCUGUCAGAUUCUGGGGAAUCUGCGAAUUCUGCUGUAUAUCUC: 0.53.
Consider UAACAGGGGGCCACCGCAGAAGCGUCCACGUCGCAGCCCCUGUCAGAUUCUGGUGAAUCUGCGAAUUCUGCUGUAUAUCCC, for which the self-cleavage is 0.35.
As for UAACAGGGGGCCACCGCAGAAGCGAUCACGUCGCAGCCCCUGUCUGAUUCUGGAGAAUCCGCGAAUUCUGCUGUAUAUCUC, the figure is 0.09; as for UAACAGGGGGCCACCGCAGAAGCGCUCGCGUCGCAGCCCCUGUCAGAUUCUGGUGAAUCUGCGAAUCCUGCUGUAUAUCUC, 0.
For UAACAGGGGGCCACCGCAGAAGCGAUCACGUCGCAGCCCCUGUCAGUUUCAGGUGAAUCUGCGUAUUCUGCUGUAUAUCUC, the self-cleavage is 0.06.
For UAACAGGGGGCCACGGCGGAAGCGUUCACGUCACAGCCCCUGUCAGAUUCUGGUGAAACUGCGUAUUCUGCUGUAUAACCC, the self-cleavage is 0.06.
The same measure for UAACAGGGGGCCACCGCAGAAGCGUUCACGUCGCAGCUCCUGUCAGAUUCUGGUGAACCUGCGAAUUCUGCUGUAUAUCUC: 0.15.
Take UAACAGGGGGCCACGGCGGAGACGUUCACGUCGCGGCCCCUGUCAGAUUCUGGUGAAUCUACGAAUUCUGCCGUAUAUCUC: the self-cleavage is 0.09.
UAACAGGGGGCCACCGCAGAAGCGUUCACGUCGCAGCCCCUGUCAGAUCCUGGUGAAUCUGCGAAUUCUGCCGUAUACCUC: the self-cleavage came out at 0.45.
For UAACAGGGGGCCACCGCAGAAGCAUUCGCGUCGGAGCCCCUGUCAGAUUCUGGUGAAUCUGCGAAUUCUGCUGUAUAUCUC, the self-cleavage stood at 0.41.
The same measure for UAACAGGGGGCCACCGCAGAAGCGCUCACGUAGCAGCCCCUGUCAGUUUCUGGUGAACCUGCGAAAUCUGCUGUAUAUCUC: 0.18; for UAACAGGGGGCCACGGCGGAAGCGUUCACGUCGCAGCCCCUGUCAGGUUCUGGUGAAUCUGCGAAUCCUGCUGUAUAUCCC: 0.32.
The same measure for UAACAGGGGGCCACCGCAGAAGCGCUCACGUCGGAGCCCCUGUCAGAUUCUGGUGAAUCUGCGAAUUCUGCUGUAUACCUC: 0.1.
